# The supplement of paper PMC3334620
# In all, about 33,000 sequences were measured (“E-score (-0.5 to 0.5)”: median about -0.035, highest 2% from about 0.35 on). The list shows a part of the results.
# Target: T1, Pdr3 (UniProt P33200)
# T1 sequence: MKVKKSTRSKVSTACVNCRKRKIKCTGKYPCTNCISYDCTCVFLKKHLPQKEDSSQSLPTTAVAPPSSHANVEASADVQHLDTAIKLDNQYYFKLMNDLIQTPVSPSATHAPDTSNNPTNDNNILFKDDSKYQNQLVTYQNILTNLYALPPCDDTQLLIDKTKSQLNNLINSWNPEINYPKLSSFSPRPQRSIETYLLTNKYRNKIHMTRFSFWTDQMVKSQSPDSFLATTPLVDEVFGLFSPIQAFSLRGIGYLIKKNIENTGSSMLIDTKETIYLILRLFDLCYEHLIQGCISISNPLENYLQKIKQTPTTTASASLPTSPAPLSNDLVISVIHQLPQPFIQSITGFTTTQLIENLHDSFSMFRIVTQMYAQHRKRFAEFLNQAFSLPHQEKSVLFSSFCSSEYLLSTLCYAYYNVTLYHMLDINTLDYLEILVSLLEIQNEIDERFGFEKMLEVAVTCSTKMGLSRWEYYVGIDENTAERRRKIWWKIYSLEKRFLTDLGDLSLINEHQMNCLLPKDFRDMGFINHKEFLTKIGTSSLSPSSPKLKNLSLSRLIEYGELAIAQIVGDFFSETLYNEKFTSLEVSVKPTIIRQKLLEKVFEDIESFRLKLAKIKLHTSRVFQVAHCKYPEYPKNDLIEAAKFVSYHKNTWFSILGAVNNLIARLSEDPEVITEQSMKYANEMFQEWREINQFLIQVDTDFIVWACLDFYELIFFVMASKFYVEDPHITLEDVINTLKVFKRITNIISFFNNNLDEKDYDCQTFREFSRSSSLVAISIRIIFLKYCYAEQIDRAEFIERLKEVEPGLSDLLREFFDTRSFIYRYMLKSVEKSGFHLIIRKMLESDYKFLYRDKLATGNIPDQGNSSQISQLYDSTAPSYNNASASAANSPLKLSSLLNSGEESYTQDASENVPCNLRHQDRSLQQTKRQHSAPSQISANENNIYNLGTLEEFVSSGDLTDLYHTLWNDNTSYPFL
# Assay: PBM E-score (8-mer binding enrichment) (E-score (-0.5 to 0.5)); higher = stronger / more preferred TF binding; most listed sequences are background and not binding sites
# Settings: protein concentration: 200 nM; construct: GST-full length
# Method in brief: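 Universal all-10-mer Agilent arrays, double-stranded by primer extension on fresh or once-stripped slides, were probed with about 100-200 nM GST-tagged yeast transcription factors made by PURExpress. Fluorescent anti-GST detected bound protein, and masliner normalised the scans. E-scores from the Universal PBM Analysis Suite were given to each ungapped eight-base word pooled with its reverse complement.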
row,Sequence,PBM E-score
1,GCTGAGAC,-0.0381
2,CGAGCTAA,0.0883
3,GCTAATGA,-0.206
4,AGGCCTAT,-0.246
5,GATGCAAA,-0.0231
6,GCGGTCCA,0.0563
7,GAGGTCAA,-0.12
8,GAAGAGGC,0.0822
9,ATCCAACC,-0.00964
10,AGCGTAGG,-0.0751
11,CGTCCGGC,0.321
12,AAACCGGT,0.147
13,CCGGTTCA,0.104
14,CTAGCATA,-0.178
15,GATAACTA,0.0209
16,AACCCGTA,0.0458
17,CTGAGCGC,-0.0124
18,AAGGAGTC,-0.277
19,CGGAAGGA,0.396
20,ACTGATAC,0.00473
21,ATTGACAC,-0.162
22,AAATCTGC,-0.0812
23,GCTCGCCC,-0.0125
24,ATGGTTCA,0.0467
25,CCTTAGAA,-0.32

row,Sequence,PBM E-score
1,GTTCACAA,-0.0345
2,CTTGATCC,0.105
3,AAATGGTA,-0.022
4,AAAATGCC,0.0801
5,CAGTTGAG,-0.249
6,GCCTCGGA,0.308
7,ACACACAT,-0.154
8,GACTCTCA,-0.111
9,GGCCGGGA,0.39
10,CAGATAGC,-0.0206
11,TACGTCTA,-0.239
12,AGGTCGTC,0.0231
13,AATCACAT,0.0509
14,AAGTACTT,-0.059
15,GCTGCGAA,0.016
16,CGACACAA,-0.184
17,ACACAGCC,0.0243
18,GGTTCTTA,-0.0791
19,AGATCACT,0.0795
20,GCTAGGAC,-0.156
21,TCCCTCAA,-0.0327
22,ACGTGTCG,-0.158
23,GATTCGGA,0.29
24,ATGGTCGC,0.113
25,CATTGGCC,-0.139

row,Sequence,PBM E-score
1,GGATATAA,0.163
2,CCTACCCA,-0.214
3,CATCTAGA,-0.0867
4,TGTTAACA,-0.218
5,ACTTTTAG,-0.127
6,ACATAAGC,-0.134
7,GTGCACCA,-0.112
8,ATACTCAG,0.126
9,CCATGATA,-0.121
10,AGAGACCT,-0.226
11,AAAACGGA,0.314
12,CGTATCAC,-0.0177
13,CATTGTAC,-0.0479
14,ACAGCAAC,0.131
15,GTTTCCTA,-0.191
16,ATCCTAAG,-0.171
17,CAGCGGGG,0.128
18,GATACAAA,0.0878
19,AAAGACGT,-0.0659
20,CATGGTAG,-0.18
21,AGAACGCT,-0.209
22,CCAATACG,-0.0731
23,GACACGGA,0.393
24,AAGAAATT,0.229
25,GACCTACA,-0.0527

row,Sequence,PBM E-score
1,AAGCGTGG,-0.159
2,ACTTCAGC,-0.119
3,GGATTACC,0.0727
4,TGTGACAA,-0.123
5,GATAGGAA,-0.0623
6,TTCCAGAA,0.0582
7,CTTACCCA,-0.0857
8,CTGCAATA,-0.0588
9,GAGATACA,0.159
10,AGGATCAG,-0.133
11,CGTATGCA,0.0709
12,CAGCCAGA,-0.0284
13,GAAAGCTC,-0.148
14,AAAAGAGT,-0.208
15,AGAGAGGC,-0.286
16,CAATATTG,-0.0365
17,AGATTCAA,0.0373
18,AATTGTCA,-0.109
19,CGGGGCCC,0.354
20,TAGACAGA,-0.0482
21,ACCGATTG,0.022
22,AACATGCT,-0.0525
23,GTAACGAA,-0.169
24,CCCATACG,-0.159
25,CCGCGGTA,0.473

row,Sequence,PBM E-score
1,CAACGAGA,0.00536
2,GCTCTTAC,-0.0194
3,TGCTCAAA,-0.0775
4,GAGGGTCA,-0.245
5,GTACATGA,-0.242
6,CTGGCATA,-0.0359
7,TCTAGTCA,-0.196
8,CACCACGC,-0.244
9,CAACGAGG,-0.0193
10,CATAAGCC,-0.0797
11,AATGCTCT,-0.165
12,CCCTCCTA,-0.135
13,GCAAATAC,-0.177
14,GACTGAGC,-0.183
15,CATCATAC,0.0298
16,ATTATCGA,-0.0732
17,GGGGTCGA,-0.0275
18,ATATCGAG,0.043
19,ACGAAGCA,-0.126
20,AAGCATAG,-0.32
21,ACAGTTGG,-0.133
22,GATGGAAC,0.06
23,GCCTAGTA,-0.163
24,AGAGTTAC,-0.193
25,CATTATAA,0.0802

row,Sequence,PBM E-score
1,AATGTTTG,-0.0916
2,GGTAACGA,-0.0165
3,ACGTATGA,-0.0247
4,ACGATTTA,0.0861
5,GGAATCCA,0.312
6,CGGGGCAC,0.00786
7,CCGGAATC,0.471
8,CTACGGCC,0.0985
9,CGTTCCCC,0.146
10,TGAATGCA,-0.0756
11,ACCCTACA,-0.144
12,CCGCAGGC,0.167
13,CATTCGAC,0.0517
14,AAGCAGAA,-0.00953
15,AATTGGGC,-0.131
16,CCTAGTGC,-0.0662
17,AAGCCACT,-0.163
18,ACCCCTCC,-0.0281
19,ACGAGACT,-0.309
20,CTAGCAAA,-0.187
21,AAGGAGAT,-0.0495
22,AATATCAT,0.0231
23,ACTCAACT,0.0159
24,TCCACAAA,0.0317
25,AATCCTAA,-0.208

row,Sequence,PBM E-score
1,AGACAGTA,-0.0481
2,AGGGGTAG,-0.104
3,GATTTTCA,0.0207
4,GAAAGCTA,0.0324
5,AACGTCTG,0.0352
6,ACCCGAAC,0.25
7,AGGGGTTG,-0.141
8,ATGGTACA,-0.101
9,TGCGACAA,-0.166
10,GAAGAAGC,-0.00109
11,ATTAGGGG,-0.0731
12,CGCCCCCA,-0.129
13,GCTACTAA,-0.153
14,ATAGCATA,-0.0191
15,GGAGCCAA,-0.0352
16,GCCGGGGA,0.2
17,AACGCGGA,0.358
18,AGGTACAC,-0.0387
19,TAGACCCA,-0.15
20,CACCCACA,-0.0782
21,CCACGGGA,0.325
22,GATTATCC,0.181
